# Paper PMC12820563, “FoxP3 forms a head-to-head dimer in vivo and stabilizes its multimerization on adjacent microsatellites”
# This is one part of the list.
# Molecular target: T1, MBP-FoxP1dN (Mus musculus, UniProt P58462 326-579)
# T1 sequence: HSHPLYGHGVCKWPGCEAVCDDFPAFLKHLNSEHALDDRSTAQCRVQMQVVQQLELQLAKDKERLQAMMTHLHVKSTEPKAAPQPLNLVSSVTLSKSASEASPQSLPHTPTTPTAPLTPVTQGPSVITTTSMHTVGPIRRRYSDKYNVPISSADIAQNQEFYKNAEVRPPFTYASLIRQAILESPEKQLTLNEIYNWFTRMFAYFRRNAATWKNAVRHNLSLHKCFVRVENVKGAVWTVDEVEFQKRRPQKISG
# Assay: PD-seq (MBP pull-down with sequencing); 20 mM Tris-HCl pH 7.5, 100 mM NaCl, 1.5 mM MgCl2, 0.4 uM protein, 0.1 uM dsDNA library, 30 min, room temperature, amylose pull-down; high values mean tight binding
# Settings: protein: recombinant; tags: His6-MBP; chain copies: 2; dsDNA, one strand shown
# Procedure, shortened: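 E. coli-expressed mouse FoxP3 or FoxP1 fragment, N-terminus removed and tagged with His6-MBP, was used at 0.4 µM against 0.1 µM of a Klenow-filled degenerate double-stranded DNA library. After 30 min at room temperature in Tris pH 7.5 buffer with NaCl and MgCl2, complexes were pulled down on amylose resin and washed three times. Binding is pull-down over input reads-per-million enrichment from pooled replicates of the proteinase K-released, PCR-barcoded, Illumina-sequenced DNA.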
row,Sequence,binding signal
1,GATGATTGTTCTCCCAGCTGATGAATTTTCTTTGTCGAGTAAACAAATTTTCCTAATCTTTCTGTTCAAGCGCCATCTAC,1.11 RPM ratio (pull-down/input)
2,GATGATTGTTCTCCCAGCTGATGAATTCTTCCGGTCGAGTAAACAAATTTTCCTAATCTTTCTGTTCAAGCGCCATCTAC,0.868 RPM ratio (pull-down/input)
3,GATGATTGTTCTCCCAGCTGATGAATTACATTGGTCGAGTAAACAAATTTTCCTAATCTTTCTGTTCAAGCGCCATCTAC,1.06 RPM ratio (pull-down/input)
4,GATGATTGTTCTCCCAGCTGATGAATTGTTACCTTCGAGTAAACAAATTTTCCTAATCTTTCTGTTCAAGCGCCATCTAC,1.25 RPM ratio (pull-down/input)
5,GATGATTGTTCTCCCAGCTGATGAATTATAAATCTCGAGTAAACAAATTTTCCTAATCTTTCTGTTCAAGCGCCATCTAC,1.11 RPM ratio (pull-down/input)
6,GATGATTGTTCTCCCAGCTGATGAATTTGAACCATCGAGTAAACAAATTTTCCTAATCTTTCTGTTCAAGCGCCATCTAC,0.887 RPM ratio (pull-down/input)
7,GATGATTGTTCTCCCAGCTGATGAATTGCCCGCATCGAGTAAACAAATTTTCCTAATCTTTCTGTTCAAGCGCCATCTAC,1.15 RPM ratio (pull-down/input)
8,GATGATTGTTCTCCCAGCTGATGAATTGATGCCGTCGAGTAAACAAATTTTCCTAATCTTTCTGTTCAAGCGCCATCTAC,1.27 RPM ratio (pull-down/input)
9,GATGATTGTTCTCCCAGCTGATGAATTCAGCTAGTCGAGTAAACAAATTTTCCTAATCTTTCTGTTCAAGCGCCATCTAC,0.836 RPM ratio (pull-down/input)
10,GATGATTGTTCTCCCAGCTGATGAATTTGACGTGTCGAGTAAACAAATTTTCCTAATCTTTCTGTTCAAGCGCCATCTAC,0.845 RPM ratio (pull-down/input)
11,GATGATTGTTCTCCCAGCTGATGAATTCCGTGCGTCGAGTAAACAAATTTTCCTAATCTTTCTGTTCAAGCGCCATCTAC,0.961 RPM ratio (pull-down/input)
12,GATGATTGTTCTCCCAGCTGATGAATTGAGGCGATCGAGTAAACAAATTTTCCTAATCTTTCTGTTCAAGCGCCATCTAC,0.965 RPM ratio (pull-down/input)
13,GATGATTGTTCTCCCAGCTGATGAATTCGCTATCTCGAGTAAACAAATTTTCCTAATCTTTCTGTTCAAGCGCCATCTAC,0.828 RPM ratio (pull-down/input)
14,GATGATTGTTCTCCCAGCTGATGAATTTTTGGTATCGAGTAAACAAATTTTCCTAATCTTTCTGTTCAAGCGCCATCTAC,1.09 RPM ratio (pull-down/input)
15,GATGATTGTTCTCCCAGCTGATGAATTCCCATTGTCGAGTAAACAAATTTTCCTAATCTTTCTGTTCAAGCGCCATCTAC,0.951 RPM ratio (pull-down/input)
16,GATGATTGTTCTCCCAGCTGATGAATTGCTAAGATCGAGTAAACAAATTTTCCTAATCTTTCTGTTCAAGCGCCATCTAC,1.09 RPM ratio (pull-down/input)
17,GATGATTGTTCTCCCAGCTGATGAATTGACAAGATCGAGTAAACAAATTTTCCTAATCTTTCTGTTCAAGCGCCATCTAC,1.27 RPM ratio (pull-down/input)
18,GATGATTGTTCTCCCAGCTGATGAATTAACCGGCTCGAGTAAACAAATTTTCCTAATCTTTCTGTTCAAGCGCCATCTAC,0.723 RPM ratio (pull-down/input)
19,GATGATTGTTCTCCCAGCTGATGAATTATAGATGTCGAGTAAACAAATTTTCCTAATCTTTCTGTTCAAGCGCCATCTAC,1.09 RPM ratio (pull-down/input)
20,GATGATTGTTCTCCCAGCTGATGAATTCGCGTGCTCGAGTAAACAAATTTTCCTAATCTTTCTGTTCAAGCGCCATCTAC,0.874 RPM ratio (pull-down/input)
21,GATGATTGTTCTCCCAGCTGATGAATTGGGCACCTCGAGTAAACAAATTTTCCTAATCTTTCTGTTCAAGCGCCATCTAC,0.85 RPM ratio (pull-down/input)

row,Sequence,binding signal
1,GATGATTGTTCTCCCAGCTGATGAATTAATCCGCTCGAGTAAACAAATTTTCCTAATCTTTCTGTTCAAGCGCCATCTAC,0.855 RPM ratio (pull-down/input)
2,GATGATTGTTCTCCCAGCTGATGAATTTCTGAAATCGAGTAAACAAATTTTCCTAATCTTTCTGTTCAAGCGCCATCTAC,0.947 RPM ratio (pull-down/input)
3,GATGATTGTTCTCCCAGCTGATGAATTTCCTCGGTCGAGTAAACAAATTTTCCTAATCTTTCTGTTCAAGCGCCATCTAC,0.78 RPM ratio (pull-down/input)
4,GATGATTGTTCTCCCAGCTGATGAATTAACCCATTCGAGTAAACAAATTTTCCTAATCTTTCTGTTCAAGCGCCATCTAC,0.909 RPM ratio (pull-down/input)
5,GATGATTGTTCTCCCAGCTGATGAATTATGTACATCGAGTAAACAAATTTTCCTAATCTTTCTGTTCAAGCGCCATCTAC,1.54 RPM ratio (pull-down/input)
6,GATGATTGTTCTCCCAGCTGATGAATTGCACGGTTCGAGTAAACAAATTTTCCTAATCTTTCTGTTCAAGCGCCATCTAC,1.03 RPM ratio (pull-down/input)
7,GATGATTGTTCTCCCAGCTGATGAATTTATTCATTCGAGTAAACAAATTTTCCTAATCTTTCTGTTCAAGCGCCATCTAC,1.08 RPM ratio (pull-down/input)
8,GATGATTGTTCTCCCAGCTGATGAATTCATAACATCGAGTAAACAAATTTTCCTAATCTTTCTGTTCAAGCGCCATCTAC,1.58 RPM ratio (pull-down/input)
9,GATGATTGTTCTCCCAGCTGATGAATTCATGCATTCGAGTAAACAAATTTTCCTAATCTTTCTGTTCAAGCGCCATCTAC,1.29 RPM ratio (pull-down/input)
10,GATGATTGTTCTCCCAGCTGATGAATTGTTGGACTCGAGTAAACAAATTTTCCTAATCTTTCTGTTCAAGCGCCATCTAC,1.03 RPM ratio (pull-down/input)
11,GATGATTGTTCTCCCAGCTGATGAATTTCGCATTTCGAGTAAACAAATTTTCCTAATCTTTCTGTTCAAGCGCCATCTAC,1.28 RPM ratio (pull-down/input)
12,GATGATTGTTCTCCCAGCTGATGAATTATTCTTGTCGAGTAAACAAATTTTCCTAATCTTTCTGTTCAAGCGCCATCTAC,1.16 RPM ratio (pull-down/input)
13,GATGATTGTTCTCCCAGCTGATGAATTCGTGCCGTCGAGTAAACAAATTTTCCTAATCTTTCTGTTCAAGCGCCATCTAC,0.843 RPM ratio (pull-down/input)
14,GATGATTGTTCTCCCAGCTGATGAATTGGTTACTTCGAGTAAACAAATTTTCCTAATCTTTCTGTTCAAGCGCCATCTAC,1.03 RPM ratio (pull-down/input)
15,GATGATTGTTCTCCCAGCTGATGAATTAGCATAGTCGAGTAAACAAATTTTCCTAATCTTTCTGTTCAAGCGCCATCTAC,0.88 RPM ratio (pull-down/input)
16,GATGATTGTTCTCCCAGCTGATGAATTGGAGAAGTCGAGTAAACAAATTTTCCTAATCTTTCTGTTCAAGCGCCATCTAC,0.778 RPM ratio (pull-down/input)
17,GATGATTGTTCTCCCAGCTGATGAATTTACTGGATCGAGTAAACAAATTTTCCTAATCTTTCTGTTCAAGCGCCATCTAC,1.02 RPM ratio (pull-down/input)
18,GATGATTGTTCTCCCAGCTGATGAATTGAGACGTTCGAGTAAACAAATTTTCCTAATCTTTCTGTTCAAGCGCCATCTAC,0.83 RPM ratio (pull-down/input)
19,GATGATTGTTCTCCCAGCTGATGAATTGCCTATCTCGAGTAAACAAATTTTCCTAATCTTTCTGTTCAAGCGCCATCTAC,0.914 RPM ratio (pull-down/input)
20,GATGATTGTTCTCCCAGCTGATGAATTACTCGACTCGAGTAAACAAATTTTCCTAATCTTTCTGTTCAAGCGCCATCTAC,0.947 RPM ratio (pull-down/input)
21,GATGATTGTTCTCCCAGCTGATGAATTTTGTCCTTCGAGTAAACAAATTTTCCTAATCTTTCTGTTCAAGCGCCATCTAC,1 RPM ratio (pull-down/input)

row,Sequence,binding signal
1,GATGATTGTTCTCCCAGCTGATGAATTTTAGAAATCGAGTAAACAAATTTTCCTAATCTTTCTGTTCAAGCGCCATCTAC,1.01 RPM ratio (pull-down/input)
2,GATGATTGTTCTCCCAGCTGATGAATTCGAGTTGTCGAGTAAACAAATTTTCCTAATCTTTCTGTTCAAGCGCCATCTAC,1.15 RPM ratio (pull-down/input)
3,GATGATTGTTCTCCCAGCTGATGAATTTAGAAGCTCGAGTAAACAAATTTTCCTAATCTTTCTGTTCAAGCGCCATCTAC,0.868 RPM ratio (pull-down/input)
4,GATGATTGTTCTCCCAGCTGATGAATTCATTGGATCGAGTAAACAAATTTTCCTAATCTTTCTGTTCAAGCGCCATCTAC,0.843 RPM ratio (pull-down/input)
5,GATGATTGTTCTCCCAGCTGATGAATTGGCTATCTCGAGTAAACAAATTTTCCTAATCTTTCTGTTCAAGCGCCATCTAC,0.86 RPM ratio (pull-down/input)
6,GATGATTGTTCTCCCAGCTGATGAATTACAAACCTCGAGTAAACAAATTTTCCTAATCTTTCTGTTCAAGCGCCATCTAC,1.27 RPM ratio (pull-down/input)
7,GATGATTGTTCTCCCAGCTGATGAATTAGCCATGTCGAGTAAACAAATTTTCCTAATCTTTCTGTTCAAGCGCCATCTAC,0.837 RPM ratio (pull-down/input)
8,GATGATTGTTCTCCCAGCTGATGAATTTCCGTTATCGAGTAAACAAATTTTCCTAATCTTTCTGTTCAAGCGCCATCTAC,0.93 RPM ratio (pull-down/input)
9,GATGATTGTTCTCCCAGCTGATGAATTCGATAGATCGAGTAAACAAATTTTCCTAATCTTTCTGTTCAAGCGCCATCTAC,0.844 RPM ratio (pull-down/input)
10,GATGATTGTTCTCCCAGCTGATGAATTGCTGGATTCGAGTAAACAAATTTTCCTAATCTTTCTGTTCAAGCGCCATCTAC,0.987 RPM ratio (pull-down/input)
11,GATGATTGTTCTCCCAGCTGATGAATTCGCTGGCTCGAGTAAACAAATTTTCCTAATCTTTCTGTTCAAGCGCCATCTAC,0.845 RPM ratio (pull-down/input)
12,GATGATTGTTCTCCCAGCTGATGAATTACAGCAATCGAGTAAACAAATTTTCCTAATCTTTCTGTTCAAGCGCCATCTAC,1.28 RPM ratio (pull-down/input)
13,GATGATTGTTCTCCCAGCTGATGAATTCATCGTTTCGAGTAAACAAATTTTCCTAATCTTTCTGTTCAAGCGCCATCTAC,0.963 RPM ratio (pull-down/input)
14,GATGATTGTTCTCCCAGCTGATGAATTGCCCATGTCGAGTAAACAAATTTTCCTAATCTTTCTGTTCAAGCGCCATCTAC,0.854 RPM ratio (pull-down/input)
15,GATGATTGTTCTCCCAGCTGATGAATTCCTATAATCGAGTAAACAAATTTTCCTAATCTTTCTGTTCAAGCGCCATCTAC,1.07 RPM ratio (pull-down/input)
16,GATGATTGTTCTCCCAGCTGATGAATTTGGCCTCTCGAGTAAACAAATTTTCCTAATCTTTCTGTTCAAGCGCCATCTAC,0.865 RPM ratio (pull-down/input)
17,GATGATTGTTCTCCCAGCTGATGAATTCGTATCCTCGAGTAAACAAATTTTCCTAATCTTTCTGTTCAAGCGCCATCTAC,0.871 RPM ratio (pull-down/input)
18,GATGATTGTTCTCCCAGCTGATGAATTTTATGACTCGAGTAAACAAATTTTCCTAATCTTTCTGTTCAAGCGCCATCTAC,0.916 RPM ratio (pull-down/input)
19,GATGATTGTTCTCCCAGCTGATGAATTGAGTTCTTCGAGTAAACAAATTTTCCTAATCTTTCTGTTCAAGCGCCATCTAC,0.823 RPM ratio (pull-down/input)
20,GATGATTGTTCTCCCAGCTGATGAATTACGCGGGTCGAGTAAACAAATTTTCCTAATCTTTCTGTTCAAGCGCCATCTAC,0.899 RPM ratio (pull-down/input)
21,GATGATTGTTCTCCCAGCTGATGAATTCTAAGTATCGAGTAAACAAATTTTCCTAATCTTTCTGTTCAAGCGCCATCTAC,0.956 RPM ratio (pull-down/input)
